Experimental findings from PMC4336329 (PLoS ONE, 2015) are described below.

The structures appear in SMILES notation. The campaign covered roughly 310,000 compounds. About 2,200 (0.71%) showed an effect of 50% or more. Effects have a minus sign here. Some of the results follow.

The assay deals with human ether-à-go-go-related gene (hERG) potassium channel (human, UniProt Q12809). The assay can be described thus: primary screen, population patch clamp on CHO cells stably expressing hERG.
Sequence of human ether-à-go-go-related gene (hERG) potassium channel (Q12809 whole entry, looked up): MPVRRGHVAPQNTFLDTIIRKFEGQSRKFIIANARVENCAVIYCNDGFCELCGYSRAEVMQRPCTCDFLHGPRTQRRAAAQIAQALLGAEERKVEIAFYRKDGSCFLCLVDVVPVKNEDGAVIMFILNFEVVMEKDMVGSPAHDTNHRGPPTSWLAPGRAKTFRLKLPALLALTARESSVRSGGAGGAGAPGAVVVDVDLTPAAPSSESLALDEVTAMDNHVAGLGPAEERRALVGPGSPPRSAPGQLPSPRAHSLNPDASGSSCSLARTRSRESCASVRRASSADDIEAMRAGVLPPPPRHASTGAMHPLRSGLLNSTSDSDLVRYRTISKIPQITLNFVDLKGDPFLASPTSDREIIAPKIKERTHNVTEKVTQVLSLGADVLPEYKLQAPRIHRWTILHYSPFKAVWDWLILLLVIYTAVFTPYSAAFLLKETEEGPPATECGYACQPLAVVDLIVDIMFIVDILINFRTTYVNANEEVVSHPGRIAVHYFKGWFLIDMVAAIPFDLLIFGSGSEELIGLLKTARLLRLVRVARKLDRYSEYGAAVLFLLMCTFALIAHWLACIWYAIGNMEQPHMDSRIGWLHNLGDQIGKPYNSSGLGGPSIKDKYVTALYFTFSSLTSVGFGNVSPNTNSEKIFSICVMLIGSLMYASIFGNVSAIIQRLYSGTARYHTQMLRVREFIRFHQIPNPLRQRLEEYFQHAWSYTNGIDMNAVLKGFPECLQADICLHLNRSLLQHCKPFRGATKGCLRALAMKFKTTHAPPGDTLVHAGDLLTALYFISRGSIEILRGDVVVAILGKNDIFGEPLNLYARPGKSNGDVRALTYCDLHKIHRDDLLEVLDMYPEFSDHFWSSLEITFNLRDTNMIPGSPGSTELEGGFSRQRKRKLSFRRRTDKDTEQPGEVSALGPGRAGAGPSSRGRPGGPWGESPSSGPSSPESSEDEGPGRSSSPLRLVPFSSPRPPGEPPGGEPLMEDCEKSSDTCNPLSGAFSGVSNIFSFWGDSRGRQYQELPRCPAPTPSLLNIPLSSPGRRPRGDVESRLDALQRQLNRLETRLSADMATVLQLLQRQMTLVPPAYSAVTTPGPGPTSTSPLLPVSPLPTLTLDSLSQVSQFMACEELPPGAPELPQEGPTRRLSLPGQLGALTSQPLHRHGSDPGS
Regarding `Cl.O=C(NC1CCN(Cc2ccccc2)CC1)C12CC3CC(CC(C3)C1)C2`, the “hERG current change (%, negative = inhibition) at 1uM” value is recorded as -7.72%.
With `Cc1ccc(NC(=O)C2CC(=O)n3c(nc4ccccc43)N2)cc1Cl` (stereo not shown) the figure was 15.6%.
Next, `COc1cc(N2C(=O)CC3(CCCC3)CC2=O)cc(OC)c1OC`: 10%; `COC(=O)c1sccc1NC(=O)c1ccccc1F`: 12.7%; `Cc1ccc(NS(=O)(=O)c2cccc(C(=O)N3CCOCC3)c2)cc1`: 8.52%.
With `C=CCNC(=O)c1ccccc1NC(=O)c1ccccc1N(C)S(C)(=O)=O` the figure was 7.16%; with `CN1CCc2c(OCC(=O)N3N=C(c4cccs4)CC3c3ccc(F)cc3)cccc2C1=O` (stereo not shown), 5.69%; with `COCc1cc(C)nc(Nc2cc(C)ccc2C)c1C#N`, 15.2%.
Turning to `NC(=S)NNc1cccc(Cl)c1`, the “hERG current change (%, negative = inhibition) at 1uM” value was 9.14%.
With `CCOC(=O)N1CCN(CC(O)c2c[nH]c3ccc(OC)cc23)CC1` (stereo not shown) the figure was 18%.
With `COc1ccc(CCNC(C(=O)Nc2cc(C)cc(C)c2)c2ccccc2)cc1` (stereo not shown) the figure was 0.993%; with `COc1cc(/C=N/NC(=O)C2CCN(CC(O)COCc3ccccc3)CC2)cc(OC)c1OC` (stereo not shown), -34.2%; with `C=C1C2[C@H](OC(C)=O)[C@@H]3CC(=O)[C@]4(C)OC[C@@]3(C)[C@@]4(O)[C@@H](OC(C)=O)[C@H](OC(C)=O)[C@@]2(COC(=O)c2ccccc2)[C@@H](OC(C)=O)C[C@@H]1O` (stereo partly shown), 9.51%.
Next, `CCc1cc2c(=O)c(-c3nc4ccccc4n3C)c(C)oc2c(CN2CCN(CCO)CC2)c1O`: 6.39%; `O=C(CSc1nc(C2CC2)nc2ccccc12)Nc1ccccc1`: 4.52%.
As to `Cc1ccc(C2(O)C(=O)c3ccccc3C2=O)c(O)c1C`, the “hERG current change (%, negative = inhibition) at 1uM” value was 1.6%.
Next, `COc1ccc(NC(=O)c2cccc(S(=O)(=O)N3CCN(C)CC3)c2)c(OC)c1`: 8.74%.
Next, `COc1ccc(N(CC(=O)Nc2cc(OC)c(OC)cc2C(=O)O)S(=O)(=O)c2c(C)noc2C)cc1`: 15.1%; `CC1=C(C(=O)OCc2ccccc2)C(c2cccnc2)n2nnnc2N1` (stereo not shown): -1.33%.
Next, `O=C(Nc1ccccc1)Nc1ccc(NC(=O)c2ccccc2O)cc1`: 11.4%; `COCCCNC(=S)N1CCN(c2nc(-c3cccc(OC)c3)cs2)CC1`: 14.9%.
Take `Cc1ccc(-c2ccc(=O)n(CCC(=O)NCc3ccccn3)n2)cc1`: the “hERG current change (%, negative = inhibition) at 1uM” value is given as -37.8%.
Next, `CC(C)(CC(=O)O)CC(=O)NCc1c(Cl)cccc1Oc1ccccc1`: 14.8%.
Next, `CN(C)S(=O)(=O)c1cc(NC(=O)[C@H](Cc2ccccc2)N2C(=O)c3ccccc3C2=O)ccc1Cl`: 5.04%; `COC(=O)COc1ccc(/C=C2\C(=O)NC(=S)N(c3ccc(C)cc3)C2=O)cc1OC`: 10.8%.
Next, `CCOC(=O)CNC(=O)N(CCOC)CC1CCCN(C2Cc3ccccc3C2)C1` (stereo not shown): 1.45%.
As to `O=C(CCCOc1ccc(Cl)cc1Cl)Nc1cccnc1`, the “hERG current change (%, negative = inhibition) at 1uM” value worked out at 9.26%.
Next, `CN(C(=O)CSc1nnc(-c2ccc(F)cc2)c2ccccc12)C1CCS(=O)(=O)C1` (stereo not shown): 2.06%; `O=C(CCNC(=O)c1ccc(Cl)cc1)NCCCN1CCOCC1`: 9.09%; `Cc1ccccc1C(=O)N1CCC(n2nccc2NC(=O)CCOc2ccccc2)CC1`: 15.1%.
Next, `O=C(NC1CCS(=O)(=O)C1)c1cccc(S(=O)(=O)N2CCOCC2)c1` (stereo not shown): 10.3%; `CCC(=O)OC1(c2ccccc2)CCN(C)CC1C.Cl` (stereo not shown): 9.74%.
Next, `O=C(Nc1ccc(N2CCCCC2)cc1)c1cccnc1Cl`: 13%.
`CC1CCCCN1C(=O)CCS(=O)(=O)Cc1ccccc1` (stereo not shown): the “hERG current change (%, negative = inhibition) at 1uM” value was 12.5%.
Next, `Cc1ccc(-c2nc(NC(=O)CSc3nnnn3-c3ccccc3)ns2)cc1`: 14.9%.
With `CC(C)(CO)NC(=O)CCCOc1ccc(Cl)cc1Cl` the figure was 2.23%.
With `Cc1onc(-c2c(F)cccc2Cl)c1C(=O)NC(=S)NC1CCS(=O)(=O)C1` (stereo not shown) the figure was 6.22%; with `CC1Cc2ccccc2N1C(=O)CNc1ccccc1N1CCCCC1` (stereo not shown), 2.17%; with `COCC(=O)NC1CCN(CC(=O)Nc2ccccc2[N+](=O)[O-])CC1`, 9.62%.
For `CCOc1nc(C)nc(NC(=O)NS(=O)(=O)c2ccccc2Cl)n1`, the “hERG current change (%, negative = inhibition) at 1uM” value was -0.0985%.
Next, `CCc1sc(C(=O)N2CCC3(CC2)OCCO3)cc1Br`: 10.7%; `CN1C(=O)c2cccc(NC(=O)CCc3ccccc3)c2C1=O`: 8.12%; `O=C(O)c1cccc(-c2ccc(/C=C3/SC(=Nc4ccccc4)N(Cc4cccnc4)C3=O)o2)c1`: 14%.
Next, `COc1c(C(=O)NCCSC(C)(C)C)ccc2ccccc12`: -6.1%; `COc1ccc(-c2cc(C)nc(SCc3cccc(C(=O)O)c3)n2)cc1`: 0.72%; `Cc1ccc(Cl)c(OCC(=O)Nc2ccccc2N2CCCCC2)c1`: 9.71%.
Next, `COc1ccc(NC(=O)c2ccc(-n3cnnn3)cc2)c([N+](=O)[O-])c1`: 11.3%; `N#Cc1ccsc1NC(=O)COC(=O)c1cc2ccccc2cc1O`: 13.7%; `COc1ccc(NC(=O)NCc2ccc3c(c2)OCO3)c(OC)c1`: 9.02%.
For `Nc1c(N(Cc2ccco2)C(=O)COc2ccccc2)c(=O)[nH]c(=O)n1Cc1ccccc1`, the “hERG current change (%, negative = inhibition) at 1uM” value worked out at 10.6%.
Regarding `CCS(=O)(=O)c1nc(S(=O)(=O)c2ccc(C)cc2)c(N2CCCC2)s1`, the “hERG current change (%, negative = inhibition) at 1uM” value was found to be 11.8%.
With `Cc1ccc(/C=C/C(=O)N2CCc3ccccc3C2)cc1` the figure was -4.77%.
With `O=C(COc1ncnc2ccccc12)Nc1cccc(S(=O)(=O)N2CCOCC2)c1` the figure was 0.89%; with `CC1CCC2(CC1)NC(=O)N(Cc1nc(-c3ccccc3)no1)C2=O` (stereo not shown), 2.98%; with `CCOC(=O)Cc1csc(SCc2nc3sc4c(c3c(=O)[nH]2)CCC4)n1`, 11.4%.
For `COCCn1c(C)cc(C(=O)CSc2n[nH]c(N)n2)c1C`, the “hERG current change (%, negative = inhibition) at 1uM” value came to 20.6%.
Regarding `CC(/C=N/NC(=O)Cn1cnc2c1c(=O)n(C)c(=O)n2C)=C\c1ccccc1`, the “hERG current change (%, negative = inhibition) at 1uM” value turned out to be 4.71%.
As to `Cl.c1ccc(Cn2nnnc2C(c2cccs2)N2CCOCC2)cc1` (stereo not shown), the “hERG current change (%, negative = inhibition) at 1uM” value is listed as 17.6%.
Next, `Cn1ccs/c1=N\C(=O)Nc1cccc(Cl)c1`: 10.7%; `COc1ccc(-c2cc(-c3cc(OC)ccc3O)[nH]n2)cc1`: 10.6%; `CCN(Cc1ccccc1)C(=O)c1c(-c2ccccc2Cl)noc1C`: 13%.
With `CCCCNC(=O)Nc1cc(C)on1` the figure was -5.96%; with `CC(C)CNC(=O)CSc1nnc(-c2ccccn2)n1Cc1ccccc1`, 7.89%.
On to `Cn1c(SCC(=O)NC2CCCCC2)nnc1-c1ccc(N)cc1`, for which the “hERG current change (%, negative = inhibition) at 1uM” value is on record as 16.4%.
With `OCCC1CN(Cc2cccn2-c2ncccn2)CCN1Cc1ccccc1` (stereo not shown) the figure was -33.4%; with `Nc1ccc(O)c(-c2nc3ccccc3s2)c1`, 9.02%; with `COCCCNCCOCCOc1ccccc1-c1ccccc1.O=C(O)C(=O)O`, -8.87%.
Next, `COc1ccc(CNc2nc3ccccc3n2Cc2ccc(C)cc2)cc1OC`: 5.18%.
With `Cc1cc(CN(C)C(=O)c2ccc(OC3CCN(Cc4ccccn4)CC3)cc2)on1` the figure was -2.96%; with `CCOc1ccc(C2C(C#N)=C(N)Oc3nc[nH]c(=O)c32)cc1` (stereo not shown), 13.3%; with `CCN(CC(=O)NCc1ccc(F)cc1)CC(=O)Nc1ccccc1-c1ccccc1`, 0.673%.
`CCc1nc(N2CCN(Cc3ccc4c(c3)OCO4)CC2)c2oc3ccccc3c2n1.Cl`: the “hERG current change (%, negative = inhibition) at 1uM” value amounted to 7.93%.
Next, `Cc1cc(C(=O)N(C)Cc2ccc(Br)cc2)no1`: 4.99%; `COc1ccc(OCCn2ccnc2C)cc1.O=C(O)C(=O)O`: 17.9%.
With `COc1cc(CCC(=O)N2CCN(S(=O)(=O)c3ccc(C)c(C)c3)CC2)cc(OC)c1OC` the figure was 6.35%; with `CCOC(=O)c1c(-c2ccc(F)cc2)csc1NC(=O)C1CCCO1` (stereo not shown), -1.27%.
Next, `CCN1CCN(C(=O)Cn2ncc3c([nH]c4ccc(C)cc43)c2=O)CC1`: 6.39%; `O=c1[nH]c2ccc(NS(=O)(=O)c3ccc(Cl)cc3)cc2[nH]1`: 14.2%; `CC(=O)OC(C)C[N+](C)(C)C.[Cl-]` (stereo not shown): 12.7%.
On to `Cc1ccc(OCC(=O)NNC(=S)NCc2ccccc2)cc1`, for which the “hERG current change (%, negative = inhibition) at 1uM” value is recorded as 2.87%.
Consider `COc1ccccc1NC(=O)CSc1ncn(-c2ccccc2)n1`, for which the “hERG current change (%, negative = inhibition) at 1uM” value stood at 9.27%.
With `CSC(=Nc1ccccc1)C(C#N)c1nc2ccccc2[nH]1` (stereo not shown) the figure was 8.29%; with `C#CCN(CC=C)C(=O)C1CCC(=O)N(CCCc2ccccc2)C1` (stereo not shown), 20.3%; with `Cc1c(-c2ccccc2)[n+](=O)c(-c2ccc(Cl)cc2)c(C)n1[O-]`, 6.06%.
Next, `CN(C)S(=O)(=O)Oc1cccc(C(=O)Nc2ccc(Cl)c(Cl)c2)c1`: -5.94%; `COCCSc1ccccc1C(=O)Nc1ccc([N+](=O)[O-])cc1OC`: 5.14%.
With `COCCNC(=S)N/N=C/c1ccc2c(c1)OCCO2` the figure was 13.7%; with `COc1ccc(S(=O)(=O)N2CCCC2CNC(=O)C(=O)NCc2ccccc2Cl)cc1` (stereo not shown), 5.55%.
